# Measured values: PubChem BioAssay AID1794842 (National Center for Advancing Translational Sciences (NCATS), 2023)
# Screen size: about 2,800 compounds; fewer than 10 were called active. Calls follow the shape of the dose curve; as a rule, active = well fitted curve in the direction sought with a large enough effect; inconclusive = small, poorly fitted or top-dose-only effect, or another doubt; inactive = no such curve, though single readings can be large or run the other way. Some of the results follow.
# Biological target: Metallo-beta-lactamase type 2 (Klebsiella pneumoniae) (UniProt C7C422)
# UniProt C7C422, sequence (C7C422 whole entry, looked up): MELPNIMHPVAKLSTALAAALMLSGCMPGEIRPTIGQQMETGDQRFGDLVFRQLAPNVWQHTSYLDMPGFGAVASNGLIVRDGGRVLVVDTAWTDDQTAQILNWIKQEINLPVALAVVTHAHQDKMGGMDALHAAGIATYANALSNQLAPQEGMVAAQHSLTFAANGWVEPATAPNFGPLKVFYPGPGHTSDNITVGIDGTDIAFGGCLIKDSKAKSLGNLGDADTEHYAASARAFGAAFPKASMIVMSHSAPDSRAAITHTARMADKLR
# Test: qHTS to identify inhibitors of the New Delhi Metallo-beta-lactamase (NDM): Meropenem screen against the machine-based learning selections. Also: % of control where 0% means no effect.
# Conditions: Purified NDM-1, meropenem hydrolysis, absorbance 300 nm; at 38.4 µM (top of the series) unless noted
# Procedure, shortened: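 NDM-1 (2 nM final) in 50 mM HEPES pH 7.0, 1 uM Zn2SO4, 0.01% Tween20 was preincubated with compounds for >30 min. Nitrocefin (16.7 uM final) was read at 485 nm after 15 min, and meropenem (50 uM final) at 300 nm after 30 min.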
row,SMILES,"activity change, negative = inhibition"
1,NC1(Cc2cc(C(=O)N3CCCCC3)on2)COC1,inactive: 1.55% [at 76.7 µM]
2,COc1ccc2c(c1)CCN=C2C[C@H]1CN(C(=O)c2ccc(F)cc2)CC[C@H]1CC(=O)O,inactive: 8.56% [at 57.5 µM]
3,COCCN1C[C@H]2CN(Cc3ccc(C(F)(F)F)cc3)CCN2C1=O,inactive: 0.0122% [at 57.5 µM]
4,Cc1cccc(C)c1-c1nc(C(=O)NCCc2ccc(Cl)cc2)n2ccccc12,inactive: 2.1%
5,Cc1ccccc1-c1[nH]nc2ncc(-c3cccc(O)c3)nc12,inactive: 1.56% [at 57.5 µM]
6,Cc1nccn1-c1ccccc1CNC1CCC2(CCNCC2)CC1,inactive: 37.8%
7,Cc1nn2cc(CCNCC3(O)CNCCOC3)nc2s1 (centres undefined),inactive: 5.26%
8,COc1ccc(NC(=O)N2CC[C@@H](CC(=O)O)[C@@H](CC3=NCCc4cc(OC)c(OC)cc43)C2)cc1,inactive: 10.7%
9,N[C@@H](Cc1cnc[nH]1)C(=O)NCc1cccnc1Oc1ccc(F)cc1F,inactive: 11.1%
10,Cc1cnc(C)c(N2CCN(C(=O)CCCc3c[nH]c4ccccc34)CC2)n1,inactive: 5.45%
11,CC(C)c1nc2c(c(-c3ccc(O)cc3)n1)CN(C(=O)C1CC1)CC2,inactive: 8.76% [at 57.5 µM]
12,COCc1cn(C[C@H]2C[C@@H](NS(C)(=O)=O)[C@H](O)[C@@H]2O)nn1,inactive: 47% [at 57.5 µM]
13,CCCNC(=O)N(C1CCOCC1)C1CCN(C(=O)c2cccc(C(F)(F)F)c2)CC1,inactive: -0.606%
14,CC(C)Cc1cn(CC2CCCN(C(=O)c3ccc4c(c3)CCO4)C2)nn1 (centres undefined),inactive: 0.617%
15,CCc1nncn1C1CCN(S(=O)(=O)c2ccc(C)cc2C)CC1,inactive: 0.453%
16,CCOCC(=O)N1CCC(N2CC3CC(C2)[C@H]2CCCC(=O)N2C3)CC1 (some centres undefined),inactive: -2.05%
17,CC(=O)NC1(C)CCN(Cc2cccc(-c3cccc4ncccc34)c2)C1 (centres undefined),inactive: 0.0467% [at 57.5 µM]
18,CNC(=O)C(C)(C)N1CCC[C@H]1C(=O)NCc1ccc(OC)cc1,inactive: -1.03% [at 57.5 µM]
19,CNC(=O)[C@@H](c1ccc(Cl)cc1)N1CCC[C@H]1C(=O)N1CCCC1,inactive: 58.2% [at 57.5 µM]
20,COc1ccc2c(c1)C(NC(=O)c1cn(CCN)nn1)CC(C)(C)O2 (centres undefined),inactive: -0.245%

row,SMILES,"activity change, negative = inhibition"
1,Cc1ccc(NC(=O)[C@@H]2CNC[C@H](C(=O)NCc3ccccn3)C2)cn1,inactive: 49.3%
2,COc1ccc(C(=O)NC[C@@H]2C=C(C)[C@H](Cc3nnc(-c4ccncc4)o3)C[C@H]2C(C)C)cc1,inactive: 3.43%
3,COc1ccccc1-c1nnc([C@H]2CCN(Cc3cccnc3)C2)o1,inactive: 8.65% [at 57.5 µM]
4,COc1nc(C)c(C(=O)N2CCC(c3[nH]ncc3-c3ccccc3)CC2)s1,inactive: 3.13%
5,CN1CCOc2c(C(=O)NCCC(N)=O)cc(-c3ccccc3O)cc21,inactive: -2.18% [at 57.5 µM]
6,CN(Cc1ccccc1)Cc1cc(CC2(NCc3ccc(OC(F)(F)F)cc3)COC2)no1,inactive: 0.859%
7,CC(C)CN1CCC(c2nc3ccc(F)cc3c(=O)[nH]2)CC1,inactive: -0.658%
8,CCCNC(=O)N(C1CCOCC1)C1CCN(C(=O)Nc2c(F)cccc2F)CC1,inactive: -4.65%
9,O=S(=O)(c1cc(F)ccc1F)N1CCCC1c1nncn1Cc1ccncc1 (centres undefined),inactive: 6.9%
10,COCCNC(=O)Cc1c[nH]c2ncc(-c3ccccc3)cc12,inactive: 6.33% [at 57.5 µM]
11,O=c1cc(-c2ccccn2)oc2c(-c3ccc(CO)cc3)nccc12,inactive: 12.7% [at 57.5 µM]
12,CC(=O)N1CCN(C(=O)C[C@@H]2c3nc(NC(=O)C4CCCCC4)sc3C[C@@H]3[C@](C)(CO)[C@H](O)CC[C@]32C)CC1,inactive: 1.18%
13,c1ccc(-c2cnc(Nc3ccncc3)c3c2CCO3)cc1,inactive: 10.6% [at 76.7 µM]
14,COCCNC(=O)C[C@@H]1C[C@@H](C(C)C)[C@H](CNS(=O)(=O)c2ccc(OC)cc2)C=C1C,inactive: 0.436%
15,CN(Cc1ccccc1)C(=O)[C@@H]1Cc2nc[nH]c2CN1,inactive: -0.524% [at 76.7 µM]
16,CN(C)c1cccc(NC(=O)Cc2c[nH]c3ncc(-c4cccnc4)cc23)c1,inactive: 5.13% [at 57.5 µM]
17,CNC(=O)C1(N2CCC[C@H]2C(=O)N2CCCC2)COC1,inactive: 0.305% [at 76.7 µM]
18,Cc1noc(-c2cn(C3CCN(C(=O)c4ccccc4Cl)C3)nn2)n1 (centres undefined),inactive: -1.22%
19,CC(=O)N1CCN(c2cc(-c3noc([C@@H]4CCCN4Cc4ccccc4C)n3)ccn2)CC1,inactive: 3.34%
